Measured values: PubChem BioAssay AID624417 (National Center for Advancing Translational Sciences (NCATS), 2012)
Screen size: about 410,000 compounds; about 6,400 (1.6%) were called active. Inconclusive results, whose numbers are uncertain, are shown with a selection of clear calls. The call rests on the fitted dose curve; in most records, active means well fitted inhibition curve with a large enough effect; inconclusive means small, poorly fitted or top-dose-only effect; inactive means no such curve, though single readings can be large or run the other way. No potency is given beside an inconclusive call; the fits are too rough.
Further: nearly all actives have a fitted effect of over 55% in size.
Potency means the concentration at half of the fitted maximal effect; tags describe the fitted curve by direction and shape.

The compounds below were run against Glucagon-like peptide 1 receptor (Homo sapiens) (UniProt P43220) (assay: qHTS of GLP-1 Receptor Inverse Agonists (Inhibition Mode)). Details: HEK293 GLP-1R CRE-luciferase, luminescence, 24 h, GLP-1R form is constitutively active; series mostly up to 38.3 µM.
Sequence of UniProt P43220 (P43220 whole entry, looked up): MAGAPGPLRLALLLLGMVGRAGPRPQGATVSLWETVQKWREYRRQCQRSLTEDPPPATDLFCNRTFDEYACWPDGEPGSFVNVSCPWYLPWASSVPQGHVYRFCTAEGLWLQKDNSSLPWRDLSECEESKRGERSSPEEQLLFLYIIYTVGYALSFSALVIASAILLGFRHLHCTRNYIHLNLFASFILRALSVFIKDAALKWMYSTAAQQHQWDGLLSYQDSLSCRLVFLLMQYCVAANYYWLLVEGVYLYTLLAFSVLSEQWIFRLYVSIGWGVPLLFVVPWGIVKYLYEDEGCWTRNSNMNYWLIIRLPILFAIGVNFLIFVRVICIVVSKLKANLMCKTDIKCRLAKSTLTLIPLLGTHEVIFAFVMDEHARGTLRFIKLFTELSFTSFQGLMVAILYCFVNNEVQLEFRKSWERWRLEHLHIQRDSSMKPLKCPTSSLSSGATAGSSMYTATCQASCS
Method in brief: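 Inverse agonism was detected as reduced cAMP-driven luciferase luminescence after 24 h compound treatment. The cells were HEK293 clones expressing constitutively active human GLP-1R with the reporter. Reporter-only and GPR119 cell lines served as counterscreen controls.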
In the case of `O=[N+]([O-])c1ccc(-c2nc(Nc3ccc(O)cc3)c3ccccc3n2)cc1`, the Potency is reported as inconclusive [inhibitor, full curve, poor fit]. With `O=C(CNC(=O)C1COc2ccccc2O1)N/N=C\c1ccc(Cl)cc1` (stereo unspecified) the Potency was inconclusive [inhibitor, single point]. For `O=C(Cc1coc2ccc3ccccc3c12)NC1CCCc2ccccc21` (stereo unspecified), the Potency was inconclusive [inhibitor, partial curve]. `Cc1nc2c(-c3ccc(F)cc3)c(C)nn2c(C)c1CCC(=O)Nc1ccc(F)cc1F` was tested, and the Potency was inconclusive [inhibitor, partial curve, poor fit]. In the case of `COc1ccccc1NC(=O)CN(c1ccc(C23CC4CC(CC(C4)C2)C3)cc1)S(C)(=O)=O`, the Potency is reported as inconclusive [inhibitor, single point]. For `Cc1ccc(O)c(-c2n[nH]c3c2C(c2ccccc2F)N(Cc2ccco2)C3=O)c1` (stereo unspecified), the Potency was “inactive”. With `Cc1cc(OCC(=O)N(C)C2CCCCC2)ccc1Cl` the Potency was inconclusive [inhibitor, partial curve]. In the case of `CC1(C)C2CCC1(CS(=O)(=O)Nc1ccc(S(=O)(=O)N3CCCCC3)cc1)C(=O)C2` (stereo unspecified), the Potency is reported as inconclusive [inhibitor, single point]. For `O=C(COC(=O)/C=C/c1ccc([N+](=O)[O-])cc1)NC(c1ccccc1)c1ccccc1`, the Potency was “inactive”. For `CC(CCc1ccc(O)cc1)NCCC(c1ccccc1)c1ccccc1` (stereo unspecified), the Potency was inconclusive [inhibitor, partial curve, poor fit]. In the case of `CCN1CCN(c2oc(-c3ccc(OC)cc3)nc2C#N)CC1`, the Potency is reported as “inactive”. In the case of `CCCN(CC1CC1)c1nc(N)c2c(N)nc(OC)cc2c1C#N`, the Potency is reported as “inactive”. For `CN(C)CCOC1(Cc2ccc(F)cc2)CCC(C(C)(C)C)CC1` (stereo unspecified), the Potency was inconclusive [inhibitor, partial curve, poor fit]. `Clc1ccc(Nc2ccc3ccccc3n2)cc1` was tested, and the Potency was inconclusive [inhibitor, single point]. With `Cc1cc(-c2ccccc2)[nH]c(=O)c1S(=O)(=O)c1ccc(Cl)cc1` the Potency was “inactive”. For `O=C(/C=C/c1ccco1)OCc1nnc(-c2ccc(Cl)cc2)o1`, the Potency was “inactive”. For `C[C@@]12C(=O)N(c3ccc(Br)cc3)C(=O)N1[C@@H]1c3ccccc3OC[C@@H]1[C@H]2c1ccccc1`, the Potency was inconclusive [inhibitor, single point]. For `COc1ccc(-c2cc3nc(C)c(CCC(=O)NC(C)CCc4ccco4)c(C)n3n2)c(OC)c1` (stereo unspecified), the Potency was inconclusive [inhibitor, partial curve, poor fit]. With `Cc1ccccc1C(NC(=O)C1CCN(Cc2ccc(Oc3ccccc3)cc2)CC1)c1ccsc1` (stereo unspecified) the Potency was inconclusive [inhibitor, full curve]. `C/C=C1\COC(C(=O)NCc2ccccc2)(C(F)(F)F)C=C1C=C(C)C` (stereo unspecified) was tested, and the Potency was active: 10 µM. With `Cc1ccc(NS(=O)(=O)c2ccc(C(=O)NC3CCN(Cc4ccccc4)CC3)cc2)cc1` the Potency was inconclusive [inhibitor, partial curve, poor fit]. `CCc1cc2c(-c3ccccc3)cc(=O)oc2cc1OC(C)C(C)=O` (stereo unspecified) was tested, and the Potency was inconclusive [inhibitor, partial curve, poor fit]. In the case of `O=C(NCC1CCN(Cc2ccc(F)cc2)CC1)c1cc2ccc3cccnc3c2[nH]1`, the Potency is reported as inconclusive [inhibitor, single point]. For `CCOc1ccc(NC(=O)Cn2c(=O)oc3cc(S(=O)(=O)N4CCC(C)CC4)ccc32)cc1`, the Potency was “inactive”. In the case of `O=C(O)c1ccc(COc2ccc(Cl)cc2)o1`, the Potency is reported as “inactive”. In the case of `Cc1cc(C(=O)Cn2nnc3ccccc3c2=O)c(C)n1Cc1cccs1`, the Potency is reported as inconclusive [inhibitor, partial curve, poor fit]. In the case of `COc1ccc(CN(C(=O)Cc2coc3ccc(C)cc23)C2CCS(=O)(=O)C2)cc1` (stereo unspecified), the Potency is reported as “inactive”. For `COc1ccc(/C=N/NS(=O)(=O)c2ccccc2)cc1OC(=O)c1ccc(C)cc1`, the Potency was “inactive”. For `Clc1ccc(CSc2cc3c(nn2)-c2ccccc2CC3)cc1Cl`, the Potency was inconclusive [inhibitor, single point]. `O=C(c1cccs1)N1CCN(CCCc2ccccc2)CC1` was tested, and the Potency was “inactive”. `Cn1cc(C(=O)C(=O)N2CCCc3ccccc32)c2ccccc21` was tested, and the Potency was inconclusive [inhibitor, partial curve, poor fit]. For `O=C(c1ccc(Cl)cc1)c1ccc(OCC(O)CN2CCCCC2)cc1` (stereo unspecified), the Potency was active: 5.01 µM. `CS(=O)(=O)c1ccc(CNC(=O)[C@]2(C(F)(F)F)C[C@H](CCc3ccccc3)CCCO2)cc1` was tested, and the Potency was inconclusive [inhibitor, single point]. `CC(=O)n1cc([C@@H]2C=C(C(=O)NCc3ccccc3)O[C@H](OCc3ccc(CO)cc3)C2)c2ccccc21` was tested, and the Potency was inconclusive [inhibitor, single point]. With `O=C(COc1ccccc1-c1ccccc1)NNC(=O)NC1CCCCC1` the Potency was inconclusive [inhibitor, partial curve, poor fit]. For `c1ccc2c(Nc3ccc4c(c3)OCCO4)c3c(nc2c1)CCC3`, the Potency was inconclusive [inhibitor, partial curve, poor fit]. With `c1ccc2sc(N3CCCN(Cc4nc(-c5cnccn5)no4)CC3)nc2c1` the Potency was inconclusive [inhibitor, single point]. In the case of `Cc1ccc(C2/C(=C(/O)c3ccc(Br)cc3)C(=O)C(=O)N2Cc2ccco2)o1` (stereo unspecified), the Potency is reported as inconclusive [inhibitor, partial curve]. With `O=C1C2CSCN2C(=O)CN1CCCN1CCN(C(c2ccccc2)c2ccccc2)CC1` (stereo unspecified) the Potency was inconclusive [inhibitor, partial curve, poor fit]. For `CSCCC(NC(=O)c1ccco1)C(=O)NC1CCC(C)CC1` (stereo unspecified), the Potency was “inactive”. For `Cc1ccc(-n2nc3c(=O)n(C(C)C(=O)NCc4ccc(Cl)cc4)nc(C)c3c2C)cc1` (stereo unspecified), the Potency was inconclusive [inhibitor, partial curve, poor fit].
